The record followed here is PubChem BioAssay (NCI).

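Cultured in 96-well plates, cells were exposed to test compound for 48 hours across five concentrations. GI50: concentration for 50% inhibition of growth. TGI: concentration producing complete growth inhibition.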 Some results are limits rather than exact numbers.

This assay concerns NCI-H322M lung. Briefly: growth of human tumour cells (NCI), 48 h.
Take `O=C(CCCCCCNC(=O)C(O)(O)C(F)(F)F)Nc1ccc(Cl)cc1`: the GI50 was 8.06 µM and the TGI was > 36.8 µM.
Taken in the same sequence, the figures for `C#Cc1nc(/C=C/C(=O)c2nccn2C)cs1` were 1.95 µM and 7.71 µM.
`CCCCCCNC(=O)Oc1ccc(/C(=C(/C)c2ccc(OC)cc2)c2ccc(OCCN3CCCCCC3)cc2)cc1`: the GI50 is 9.73 µM and the TGI is 27.5 µM.
The like results for `COc1cc(OC)c(S(N)(=O)=O)cc1C(=O)/C=C/c1ccccc1` were, in that order, 10.7 µM and 22.6 µM.
Consider `N#Cc1c(-n2c(Br)c(Br)c3cc(Br)ccc32)[nH]c2c(Br)cc(Br)cc12`, for which the GI50 is 1.42 µM and the TGI was > 15 µM.
For the molecule `Cc1cc(O)c(=O)cc2c1C[C@H]1CC(C)(C)/C=C/C[C@]3(C)Oc4cc(=O)c(O)cc(C)c4C[C@H]3C[C@H](O)[C@@]1(C)O2`, the GI50 was 0.0301 µM and the TGI was > 16.7 µM.
